Results as given in the supplement of paper PMC3334620.
Whole data set: some 33,000 sequences, median “E-score (-0.5 to 0.5)” near -0.054, cut for the highest 2% near 0.35. The list shows a part of the results.

biological target: T1, Stb5 (UniProt P38699); assay: PBM E-score (8-mer binding enrichment) (E-score (-0.5 to 0.5)); higher = stronger / more preferred TF binding; most listed sequences are background and not binding sites; conditions: protein concentration: 200 nM; construct: GST-full length
T1 sequence: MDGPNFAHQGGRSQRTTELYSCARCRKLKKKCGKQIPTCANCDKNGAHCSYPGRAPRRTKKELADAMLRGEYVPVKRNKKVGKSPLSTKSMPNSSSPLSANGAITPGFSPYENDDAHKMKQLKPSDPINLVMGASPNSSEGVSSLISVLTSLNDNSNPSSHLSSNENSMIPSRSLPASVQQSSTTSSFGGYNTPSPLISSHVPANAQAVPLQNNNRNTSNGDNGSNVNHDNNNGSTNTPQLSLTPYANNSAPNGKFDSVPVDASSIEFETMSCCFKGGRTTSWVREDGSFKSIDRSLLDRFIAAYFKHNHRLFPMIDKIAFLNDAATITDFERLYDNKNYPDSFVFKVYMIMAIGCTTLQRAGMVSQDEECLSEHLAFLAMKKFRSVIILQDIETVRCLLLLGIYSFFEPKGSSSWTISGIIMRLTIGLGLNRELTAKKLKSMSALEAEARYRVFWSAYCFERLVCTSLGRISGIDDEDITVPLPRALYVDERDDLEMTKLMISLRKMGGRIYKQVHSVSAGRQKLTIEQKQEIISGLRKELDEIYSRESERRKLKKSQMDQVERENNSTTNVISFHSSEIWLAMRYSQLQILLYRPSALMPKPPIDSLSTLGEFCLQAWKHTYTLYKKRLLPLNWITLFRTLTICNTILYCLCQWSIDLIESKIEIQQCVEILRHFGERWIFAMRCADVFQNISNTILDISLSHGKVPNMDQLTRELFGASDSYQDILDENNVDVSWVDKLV
How it was run: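 GST-tagged yeast TFs (full-length or DNA-binding domain) were made by PURExpress in vitro transcription/translation and applied at about 100-200 nM to universal all-10-mer Agilent arrays. The arrays were made double-stranded by primer extension, on fresh or once-stripped slides. Bound protein was detected with fluorescent anti-GST, and scans were normalised with masliner. Each ungapped eight-base word, pooled with its reverse complement, received an E-score (modified Wilcoxon-Mann-Whitney statistic) from the Universal PBM Analysis Suite.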

Sequence | PBM E-score
CGCTTCCG | 0.208
AACTAGGC | -0.093
CAGTCCTA | -0.313
ACCGGACT | 0.376
CAGCGATG | -0.0384
GAGTTGAC | -0.0497
GAGCCAAC | -0.226
CATCAGAA | -0.195
AGGGCTGC | -0.226
GAAACCCC | 0.353
GGGTTTGA | 0.0849
GTGTGTCA | -0.0349
ATTTCGGA | 0.265
GGACACGA | 0.0374
CCCCGCTC | 0.371
ACGGTCCA | 0.0299
GCTATATA | 0.132
CGATCAAC | -0.141
ACATCACG | -0.114
ACCGCCCC | 0.367
TACACTAA | -0.176
ATGAGATG | -0.17
ATGGCCTG | -0.227
AAAGAGCC | 0.111
CTTTGCTC | 0.0678

Sequence | PBM E-score
AGCTTAAG | -0.265
TAGCTGAA | -0.141
GTCTGCAC | -0.0476
GAACGAAA | -0.156
CCGTAGCA | 0.189
CATTGACG | -0.0772
AGGTTAAC | 0.0587
GGTACTTA | 0.233
ACCTTTGC | -0.0619
ATAGAGTC | -0.013
CCAGTGGG | -0.145
CCGTCCGA | 0.275
ACACGTCC | -0.114
CCGGGAAG | 0.0638
AAGATCGC | -0.0115
CCAATTTC | -0.0638
CGATACAG | -0.0583
AGAGTATG | -0.102
AAATCGCT | -0.107
CAGTAGCC | -0.051
AATAGAGG | -0.111
AAGTTTGG | -0.00921
ATCTTACG | 0.0966
CCGCCGAG | 0.28
AACTGCGG | 0.307

Sequence | PBM E-score
CGACAACG | 0.175
ATTAACGA | -0.0931
AACATGTC | 0.0872
GACAGACA | 0.0708
ATTATCTG | -0.0511
CTGGAGGC | -0.272
ATTGCGGC | 0.204
CTTTGCCA | -0.0558
AGTTTATC | 0.0422
CCATCGTA | -0.0851
ATTCGGGA | 0.0209
AATTCTTA | -0.112
CCCGGGAA | 0.217
ACCGCAAA | 0.262
GGATTACA | -0.0636
CGAGAATA | -0.0969
ACACACAC | -0.133
CGAAGTAC | 0.0461
AGTGATAT | -0.0933
CATCTTGG | -0.229
CATCGGCA | 0.328
TGAGAACA | -0.0285
GAAGGGGC | -0.11
ATCCGCTC | 0.243
GTCGCGTA | 0.0581

Sequence | PBM E-score
AAACGCGA | -0.0694
ATCGCCAT | 0.161
AAGCGAGT | -0.0722
ACTTATAG | 0.198
ATAAAGAC | 0.0554
ATTAAAAG | 0.0331
GTGAAGAA | -0.141
ATATCTCC | 0.397
ATGGACAG | -0.131
GTCGAGAA | -0.174
AGGTGCAA | -0.161
CCCCAAAG | -0.212
GGAAATCA | -0.0323
CAACGAAG | -0.162
ATATGTTG | -0.128
AGCGTACT | -0.0432
AAGGCCAG | -0.161
CTACCAAG | -0.191
GCAGTACA | 0.0171
TACTTGAA | -0.125
AGACCAAT | -0.177
AGGGCGGG | 0.328
CGGGATCA | 0.321
AAGTACGT | -0.0365
ATCGCTTG | -0.173

Sequence | PBM E-score
AGCCCAAT | -0.246
GTCGGCAC | 0.374
ACGAATGC | -0.299
ACTTTTCA | -0.276
AGGCAATC | -0.176
CCACTGGG | -0.315
CCTTTGTA | -0.0974
AGCACACG | -0.157
AAAATAAC | 0.0722
CACGTGAA | -0.198
CGGACATC | 0.256
CGCCGAAA | 0.311
TATGGAAA | -0.0819
CAGGGTAA | -0.133
CAGGATCA | -0.159
CCTACTAG | -0.196
CGCGGACC | 0.319
GGTCAAGA | -0.165
ATATGGCG | 0.103
AGTGGATC | -0.054
CTCGATGC | -0.2
GGCTACTA | 0.1
ACGATCAT | -0.317
CAGACAGA | -0.206
CATCCCAA | -0.296

Sequence | PBM E-score
GGTACGAC | 0.063
CACTCCGC | 0.307
ACTTTCAG | -0.132
GCACTCCA | -0.0741
GCCGAGAC | 0.00317
CATATCTC | 0.0185
GCATTACA | -0.0122
CAAAAACC | 0.251
CTCGCACA | -0.108
GCTGGGGA | -0.0409
CTGACAGC | -0.122
CCAAAGTC | -0.0853
CGTTTTGC | -6e-05
ATGTGTCC | 0.14
GGCTGGAA | -0.0915
AACTAAGT | -0.0163
GGCCAAGA | -0.185
CGTGAGAG | -0.241
CCCTGCAG | -0.0201
CCTTCACG | -0.111
AACATGAT | -0.148
CACGAACC | 0.0906
AAACACAC | 0.0727
AAGCGATC | -0.0121
TAATCCTA | 0.0784

Sequence | PBM E-score
ACCTACAT | -0.17
CGCAAGAG | -0.0947
GGATAGAC | -0.0915
ACGGTACT | 0.389
GGGGCTAC | 0.213
ACATCACT | -0.259
CATCAACG | -0.0698
GATAGGAC | -0.0426
GGGTTAGA | 0.107
CAGCAATC | -0.068
TGGTACCA | -0.0919
ACGACATG | -0.0894
AAAACCCG | 0.379
CTATTCAC | 0.0929
CAAGAAGA | -0.224
AAGAGTGT | -0.252
AACCTCGG | 0.157
GGTTAGAC | 0.0467
CTTAGAAA | -0.105
CTCGCCTC | -0.245
CGCGCGGA | 0.22
CTGCTCGC | -0.122
